Data on seven molecules can be found in US20050059087A1, “Antibodies directed to the deletion mutants of epidermal growth factor receptor and uses thereof” (priority 2003, published 2005).

Usually Kd stands for the equilibrium constant for the complex coming apart. A lower Kd goes with higher affinity.

Assay [1] deals with wild type EGFr peptide-OVA. Description: Hybridoma ELISA counter screen on wild type EGFr peptide-OVA coated plates. As to conditions: clone supernatant. The class given is binding, human. How it is done:
(§1) Cells were plated in flat bottomed 96-well tissue culture plates at 4×1 cells per well. Cultures were maintained in HAT (hypoxanthine, aminopterin and thymidine) supplemented media for 2 weeks before transfer to HT (hypoxanthine and thymidine) supplemented media. Hybridomas were selected for by survival in HAT medium and supernatants were screened for antigen reactivity by ELISA. The ELISA format entailed incubating supernatants on antigen coated plates (EGFRvIII peptide-OVA coated plates and wild type EGFr peptide-OVA coated plates as a counter screen) and detecting EGFRvIII-specific binding using horseradish peroxidase (HRP) labeled mouse anti-human IgG (see Table 2.1).
(In general: In an ELISA, binding on a coated surface is turned into a signal by an enzyme label.)

In the next assay the target is T1, Pep-3 (EGFRvIII epitope) (Homo sapiens, UniProt P00533, DELINS30-297G).
T1 construct: purchased Anatech, Inc. (San Jose, Calif.); host or cells: custom synthesis
Description: Biacore (surface plasmon resonance) binding kinetics to Pep-3. Here is the method:
All antigen and mAb samples for Biacore and KinExA analysis were prepared in vacuum-degassed HBS-P buffer (0.01 M HEPES, 0.15 M NaCl, 0.005% surfactant P-20, Biacore Inc., Uppsala, Sweden) containing 100 μg/mL BSA. […] Research grade CM5 biosensor chips were purchased from Biacore, Inc.
Standard EDC/NHS and carbohydrate coupling was used to covalently immobilize mAbs to a CM5 sensor chip. To minimize mass transport and crowding mAbs were immobilized at levels that gave a maximum antigen binding response (Rmax) of no more than 50-100 RU. A reference flow cell on each chip was activated and blocked with no mAb immobilization to serve as a control.
All Biacore kinetic experiments were conducted at 23° C. […] Antigen samples were randomly injected over the biosensor surface in triplicate at 100 μL/min. Several buffer blanks were injected intermittently over the course of an experiment for double referencing. Each pep-3 concentration and blank were injected for 90 seconds. Dissociation was followed for 13 to 180 minutes.
All Biacore sensorgrams were processed using Scrubber software (Version 1.1f, BioLogic Software, Australia). Sensorgrams were first zeroed on the y-axis and then x-aligned at the beginning of the injection. Bulk refractive index changes were removed by subtracting the reference flow cell responses. The average response of all blank injections was subtracted from all analyte and blank sensorgrams to remove systematic artifacts between the experimental and reference flow cells. CLAMP biosensor data analysis software (Version 3.40, BioLogic Software, Australia) was used to determine ka and kd from the processed data sets. Data from all flow cells were globally fit to a 1:1 bimolecular binding model that included a mass transport term. […] The KD was calculated from the quotient kd/ka.
Two CM5 sensor chips were used in total to immobilize both mAbs. […] Biacore 2000 optical biosensors were used for all studies.
Next, pep-3 was flowed across the mAb immobilized biosensor surfaces. The starting concentration of pep-3 was 1.25 μM, which was followed with eight two-fold serial dilutions in randomized triplicate injections. Blank injections were run every sixth sample throughout the injection series for double referencing purposes.
Finally, the biosensor data was processed with Scrubber and the data was fit to curves utilizing Clamp with a 1:1 interaction model with a term included for mass transport. […]
(In general: In SPR one partner is held on a chip, and binding of the other changes the refractive index at the surface.)

In assay [2] the target is T2, EGFRvIIIpflag (iodoacetic acid reacted) (Homo sapiens, UniProt P00533, DELINS30-297G).
T2 construct: A 1092 bp fragment encoding the extracellular domain of EGFRvIII was generated; FLAG; made in house; host or cells: 293T cells
Description: KinExA equilibrium measurement, EGFRvIIIpflag. The class given is binding. How it is done:
The equilibrium titration data were fit in a dual curve analysis to a 1:1 binding model using KinExA software (Version 2.4, Sapidyne Instruments).
A sample volume of 250 μL was analyzed for the antibody-controlled experiment. Two or three replicates of each sample were measured for all equilibrium experiments. The equilibrium titration data were fit in a dual curve analysis to a 1:1 binding model using KinExA software (Version 2.4, Sapidyne Instruments).
For orientation: Kinetic exclusion samples the free partner from a solution-phase mixture.

The target in assay [3] is T3, H1477 (H80-EGFRvIII) cells (Homo sapiens, UniProt P00533, DELINS30-297G).
T3 construct: host or cells: H1477 (H80 human glioblastoma line transfected with EGFRvIII)
Description: FACS staining of H1477 (H80-EGFRvIII) cells. The class given is cell-based. To be noted: 10 μg/ml. How it is done: (§2) The specificity of the purified antibodies was ascertained by performing FACS analysis on a panel of cell lines. H80, a human glioblastoma line, and H1477 (H80-EGFRvIII) that expresses high levels of EGFRvIII, A431, a human epidemoid carcinoma line, and A549, a human lung carcinoma cell line were used as the cell lines. All cell lines were from Dr. Bigner except A431 and A549, which were from ATCC (Rockville, Md., U.S.A.). Cells were incubated on ice with 10 μg/ml of the respective antibody for 30 min., washed in FACS buffer and subsequently incubated with PE-conjugated goat anti-human IgG from Jackson ImmunoResearch (West Grove, Pa., U.S.A.). In FIGS. 9A-9L and 10A-10D, the darkened histogram indicates cells stained with an irrelevant IgG, the outlined, or white histogram, represents the staining of the relevant antibodies.

Assay [4] has as its target T4, EGFRvIII peptide-OVA (muEGFr) (Homo sapiens, UniProt P00533, DELINS30-297G).
T4 construct: purchased R&D Systems (custom synthesis); host or cells: synthetic peptide
Description: Hybridoma supernatant ELISA on EGFRvIII peptide-OVA coated plates. It is filed as binding. As to conditions: clone supernatant. Here is the method: as §1

In assay [5] the target is T5, A431 cells (wild type EGFR) (Homo sapiens, UniProt P00533).
T5 construct: host or cells: A431
Description: FACS staining of A431 cells. As to conditions: 4° C., Example 6. It is filed as cell-based. Here is the method: as §2

Setting [6] is: Biacore, parentheses 95% confidence interval.
The mark [7] stands for this setting: Pep-3, parentheses 95% confidence interval.

B1: 13.1.2: human anti-EGFRvIII hybridoma mAb, subclone of 13.1; SEQ ID NO: 138 and 140 (antibody, listed as Homo sapiens)
VH: QVQLVESGGGVVQPGRSLRLSCAASGFTFSSYGMHWVRQAPGKGLEWVAVIWYDGSNKYYVDSVKGRFTISRDNSKNTLYLQMNSLRAEDTAVYYCARDGWQQLAPFDYWGQGTLVTVSSASTKGPSVFPLAPSSKSTSGGTAALGCLVKDYFPEPVTVSWNSGALTSGV
light: [no letters for about 100 residues]QLPRTFGQGTKVEIKRTVAAPSVFIFPPSDEQLKSGTASVVCLLNNFYPREAKVQWKVDNALQSGNSQ
For B1, the “OD #2 EGFr” value in assay [1] stood at 0.041. Further, in the assay with Pep-3 (EGFRvIII epitope) (Biacore, curve fitting), the ka is 2.835*10^5 and the kd came out at 0.01922. In addition, in the assay with Pep-3 (EGFRvIII epitope) (setting [6]), the Ka is reported as 2.10 (0.58) × 10^5 M^−1s^−1 and the “dissociation rate constant (kd, koff)” value is recorded as 0.016 (0.003) s^−1. Also, in the assay with Pep-3 (EGFRvIII epitope) (setting [7]), the ka is recorded as 2.10 (0.58) × 10^5 M^−1s^−1 and the kd is 0.016 (0.003) s^−1. The affinity in assay [2], expressed as Kd, was 0.754 nM. In addition, in assay [3], the “Binding to the EGFRvIII protein on the transfected cell lines” value is listed as “bind”. For the same molecule, the “OD #2 muEGFr” value in assay [4] amounted to 1.272. Further, the “OD #1 cloning plate” value in assay [4] (cloning plate) is recorded as 2.248. Besides, in assay [5], the “Recognition of a subset of wild type EGFRs on A431 cells” value is listed as “did not recognize”.

B2: L99T-5.3: 13.1.2 variant with point mutation Leu99Thr (antibody)
VH: QVQLVESGGGVVQPGRSLRLSCAASGFTFSSYGMHWVRQAPGKGLEWVAVIWYDGSNKYYVDSVKGRFTISRDNSKNTLYLQMNSLRAEDTAVYYCARDGWQQLAPFDYWGQGTLVTVSSASTKGPSVFPLAPSSKSTSGGTAALGCLVKDYFPEPVTVSWNSGALTSGV
VL: [no letters for about 100 residues]QTPRTFGQGTKVEIKRTVAAPSVFIFPPSDEQLKSGTASVVCLLNNFYPREAKVQWKVDNALQSGNSQ
As for B2, in the assay with Pep-3 (EGFRvIII epitope) (Biacore, curve fitting), the ka is 2.238*10^5 and the kd turned out to be 0.01217. In the assay with Pep-3 (EGFRvIII epitope) (setting [7]), the ka is recorded as 2.16 (0.12) × 10^5 M^−1s^−1 and the kd is listed as 0.013 (0.001) s^−1.

B3: L99H-9.2: 13.1.2 variant with point mutation Leu99His (antibody)
VH: QVQLVESGGGVVQPGRSLRLSCAASGFTFSSYGMHWVRQAPGKGLEWVAVIWYDGSNKYYVDSVKGRFTISRDNSKNTLYLQMNSLRAEDTAVYYCARDGWQQLAPFDYWGQGTLVTVSSASTKGPSVFPLAPSSKSTSGGTAALGCLVKDYFPEPVTVSWNSGALTSGV
VL: [no letters for about 100 residues]QHPRTFGQGTKVEIKRTVAAPSVFIFPPSDEQLKSGTASVVCLLNNFYPREAKVQWKVDNALQSGNSQ
Turning to B3, the kd in the assay with Pep-3 (EGFRvIII epitope) (Biacore, curve fitting) came out at 0.03293. In the assay with Pep-3 (EGFRvIII epitope) (setting [7]), the ka stood at 83400 M⁻¹ s⁻¹ and the kd was determined as 0.033 s⁻¹.

B4: N35G-3.1: 13.1.2 variant with point mutation Asn35Gly (antibody)
VH: QVQLVESGGGVVQPGRSLRLSCAASGFTFSSYGMHWVRQAPGKGLEWVAVIWYDGSNKYYVDSVKGRFTISRDNSKNTLYLQMNSLRAEDTAVYYCARDGWQQLAPFDYWGQGTLVTVSSASTKGPSVFPLAPSSKSTSGGTAALGCLVKDYFPEPVTVSWNSGALTSGV
VL: DIVMTQTPLSSPVTLGQPASISCRSSQSLVHSDGGTYLSWLHQRPGQPPRLLIYKISNRFSGVPDRFSGSGAGTAFTLKISRVEAEDVGVYYCMQATQLPRTFGQGTKVEIKRTVAAPSVFIFPPSDEQLKSGTASVVCLLNNFYPREAKVQWKVDNALQSGNSQ
Consider B4, for which, in the assay with Pep-3 (EGFRvIII epitope) (Biacore, curve fitting), the ka was 1.497*10^5 and the kd was 0.03057. Further, in the assay with Pep-3 (EGFRvIII epitope) (setting [7]), the ka was 150000 M⁻¹ s⁻¹ and the kd turned out to be 0.030 s⁻¹.

B5: Y172R-1.2: 13.1.2 variant with point mutation Tyr172Arg (antibody)
VH: QVQLVESGGGVVQPGRSLRLSCAASGFTFSSYGMHWVRQAPGKGLEWVAVIWYDGSNKRYVDSVKGRFTISRDNSKNTLYLQMNSLRAEDTAVYYCARDGWQQLAPFDYWGQGTLVTVSSASTKGPSVFPLAPSSKSTSGGTAALGCLVKDYFPEPVTVSWNSGALTSGV
VL: [no letters for about 100 residues]QLPRTFGQGTKVEIKRTVAAPSVFIFPPSDEQLKSGTASVVCLLNNFYPREAKVQWKVDNALQSGNSQ
For the molecule B5, the kd with Pep-3 (EGFRvIII epitope) (Biacore, curve fitting) turned out to be 0.07622; in the assay with Pep-3 (EGFRvIII epitope) (setting [7]) it was 0.076 s⁻¹. In addition, the ka in the assay with Pep-3 (EGFRvIII epitope) (setting [7]) worked out at 82200 M⁻¹ s⁻¹.

B6: L217N-2.1: 13.1.2 variant with point mutation Leu217Asn (antibody)
VH: QVQLVESGGGVVQPGRSLRLSCAASGFTFSSYGMHWVRQAPGKGLEWVAVIWYDGSNKYYVDSVKGRFTISRDNSKNTLYLQMNSLRAEDTAVYYCARDGWQQNAPFDYWGQGTLVTVSSASTKGPSVFPLAPSSKSTSGGTAALGCLVKDYFPEPVTVSWNSGALTSGV
VL: [no letters for about 100 residues]QLPRTFGQGTKVEIKRTVAAPSVFIFPPSDEQLKSGTASVVCLLNNFYPREAKVQWKVDNALQSGNSQ
For the molecule B6, the ka in the assay with Pep-3 (EGFRvIII epitope) (Biacore, curve fitting) was 2.198*10^5; in the assay with Pep-3 (EGFRvIII epitope) (setting [7]) it was 220000 M⁻¹ s⁻¹. For the same molecule, the kd amounted to 0.04069 with Pep-3 (EGFRvIII epitope) (Biacore, curve fitting) and 0.040 s⁻¹ with Pep-3 (EGFRvIII epitope) (setting [7]).

B7: L217Q-10.1: 13.1.2 variant with point mutation Leu217Gln (antibody)
VH: QVQLVESGGGVVQPGRSLRLSCAASGFTFSSYGMHWVRQAPGKGLEWVAVIWYDGSNKYYVDSVKGRFTISRDNSKNTLYLQMNSLRAEDTAVYYCARDGWQQQAPFDYWGQGTLVTVSSASTKGPSVFPLAPSSKSTSGGTAALGCLVKDYFPEPVTVSWNSGALTSGV
VL: [no letters for about 100 residues]QLPRTFGQGTKVEIKRTVAAPSVFIFPPSDEQLKSGTASVVCLLNNFYPREAKVQWKVDNALQSGNSQ
In the case of B7, the ka was 2.04*10^5 with Pep-3 (EGFRvIII epitope) (Biacore, curve fitting) and 204000 M⁻¹ s⁻¹ with Pep-3 (EGFRvIII epitope) (setting [7]). The kd with Pep-3 (EGFRvIII epitope) (Biacore, curve fitting) is 0.01885; with Pep-3 (EGFRvIII epitope) (setting [7]), 0.019 s⁻¹.
